# The campaign covered roughly 310,000 compounds. About 18,000 (5.8%) were called active. The inconclusive results got no clear call from the source; some entries with a clear call stand among them for comparison. Calls come from the whole dose curve; as a rule, active = well fitted inhibition curve with a large enough effect; inconclusive = small, poorly fitted or top-dose-only effect, or another doubt; inactive = no such curve, though single readings can be large or run the other way. No potency is given beside an inconclusive call; the fits are too rough.
# Assay: Primary qHTS for delayed death inhibitors of the malarial parasite plastid, 48 hour incubation
# Settings: P. falciparum luciferase growth in erythrocytes; series mostly up to 28.7 µM; activity change, negative = inhibition: at the top concentration
# Outline: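 Compounds are pin-transferred into medium, infected erythrocytes (2% hematocrit, 0.1% parasitemia final) are added, and plates sit one parasite generation at 37 C in 5% CO2. Detection reagent is then added and luminescence measured.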
# % is set by controls: 0 for no effect and ±100 for the full control effect; potency is the fitted concentration of half-maximal effect; tags give direction and shape of the fitted curve.
Structure (SMILES),Potency,"activity change, negative = inhibition"
Cc1ccc(NC(=O)c2cccc(S(=O)(=O)N3CCN(C)CC3)c2)cc1F,"inconclusive [inhibitor, single point]",–
OC(CNCC1COc2ccccc2O1)COc1ccc(Cl)cc1 (centres undefined),–,inactive: 3.86%
O=C(N/N=C/c1ccc(O)cc1O)c1ccc(CN2C(=O)c3cccc4cccc2c34)cc1,"inconclusive [inhibitor, partial curve]",–
Cc1oc2c(CN3CCCCC3)c(O)ccc2c(=O)c1-c1ccc(Br)cc1,"inconclusive [inhibitor, full curve, poor fit]",–
CC(C)CN(CC(C)C)C(=O)Nc1cccc([N+](=O)[O-])c1,"inconclusive [inhibitor, single point]",–
COc1ccccc1/C=C/C=N/n1c(COc2ccccc2)n[nH]c1=S,"inconclusive [inhibitor, full curve, poor fit]",–
CCOc1cc(-c2sc(Nc3ccc(CC)cc3)n[n+]2-c2ccccc2)ccc1OC,active: 10.4 µM,–
O=C(Nc1ccccc1)Nc1cc(OCC(F)(F)F)cc(OCC(F)(F)F)c1,active: 2.62 µM,–
Cc1ccc(OCCC(=O)NNC(=O)c2nn(C)c(=O)c3ccccc23)cc1,"inconclusive [inhibitor, partial curve, poor fit]",–
O=C(CSc1nnc(NC(=O)c2ccco2)s1)Nc1ccccc1Br,–,inactive: 2.74%
COc1ccc(-n2nc(C(=O)NCC(=O)N3CCOCC3)c3ccccc3c2=O)cc1OC,–,inactive: 31.1%
COc1ccc(CN(C)C(C)C(=O)Nc2ccc(S(=O)(=O)N3CCCCC3)cc2)cc1F (centres undefined),active: 10.4 µM,–
COc1cc(-c2nnn(Cc3ccccc3C)n2)cc(OC)c1OC,–,inactive: -16.2%
CCCCC(O)(CCCC)C(=O)N/N=C(\C)c1ccc(Cl)cc1,–,inactive: 0%
Cc1ccc(NC(=O)COc2cccc3c2OC(C)(C)C3)c(O)c1,active: 10.4 µM,–
COc1ccc(S(=O)(=O)N(CC(=O)NC2CCCC2)c2ccccc2OC)cc1,"inconclusive [inhibitor, single point]",–
CCOC(=O)C1=C(NC(=S)NC(=O)c2ccccc2)c2ccccc2CC12CCCC2,"inconclusive [inhibitor, partial curve, poor fit]",–
O=C(c1cccc(F)c1)N1CCN(c2cc(N3CCCCC3)c(F)cc2[N+](=O)[O-])CC1,"inconclusive [inhibitor, single point]",–
O=C(CCn1nnc2ccccc21)OCC(=O)c1ccc(F)cc1,–,inactive: 35.6%
CC(C)(C)[C@H]1C=C(C(=O)NCc2ccccc2)O[C@@H](OCc2ccc(CO)cc2)C1,"inconclusive [inhibitor, single point]",–
COc1ccc2nc(NC(=O)c3cccnc3SC)sc2c1,–,inactive: 143%
Cc1c(Cl)cccc1NC(=O)c1cc(-c2ccco2)on1,–,inactive: 42.3%

Structure (SMILES),Potency,"activity change, negative = inhibition"
O=C(Cn1c(-c2ccccc2)c[n+]2ccsc12)c1ccccc1,"inconclusive [inhibitor, full curve, poor fit]",–
CCCc1ccc(OCCNC(=O)c2ccccc2Br)cc1,–,inactive: -24.5%
Cc1cc(C)n(-c2nc3ccccc3nc2N2CCN(S(=O)(=O)c3ccc(F)c(C)c3)CC2)n1,"inconclusive [inhibitor, partial curve, poor fit]",–
CCN1CCN(CCc2nc3cc(NC(=O)COc4ccccc4)ccc3n2C)CC1,"inconclusive [inhibitor, single point]",–
CCOCCOC(=O)C1=C(C)N(C)C(=O)NC1c1cc(Cl)c(O)c(OC)c1 (centres undefined),"inconclusive [inhibitor, full curve, poor fit]",–
COc1ccc(N(C)C(=O)c2ccc(NC(=O)CCS(=O)(=O)c3cccs3)cc2)cc1,–,inactive: -9.59%
Oc1c(C(Nc2ccccn2)c2cccnc2)cc(Cl)c2cccnc12 (centres undefined),active: 4.65 µM,–
CCN(CC)C(=O)CSc1nnc(CCCCCNC(=O)OC(C)(C)C)o1,"inconclusive [inhibitor, single point]",–
CN(C)CCCNC(=S)/N=c1\sccn1Cc1ccccc1Cl,"inconclusive [inhibitor, partial curve]",–
CC(CCc1ccccc1)NC(=O)c1ccc(NC(=O)c2ccc(Cl)cc2Cl)cc1 (centres undefined),"inconclusive [inhibitor, partial curve]",–
COc1cc(NC(=S)NCCC(c2ccccc2)c2ccccc2)cc(OC)c1,active: 13.1 µM,–
O=C(O)C(Cc1ccccc1)N1C(=O)/C(=C/c2cccs2)SC1=S (centres undefined),–,inactive: 3.96%
CC1CCCN(CCC(=O)Nc2ccc(Br)cc2)C1 (centres undefined),–,inactive: 11.1%
Cc1cccc(C2c3[nH]c4ccccc4c3CCN2C(=O)c2cc(-c3cccn3C)n[nH]2)n1 (centres undefined),"inconclusive [inhibitor, partial curve]",–
CSc1ccc(CN2CCCC(CO)(Cc3ccccc3)C2)cc1 (centres undefined),"inconclusive [inhibitor, single point]",–
C=CCOc1c(CCC)cc(CCC)cc1C(N)=O,"inconclusive [inhibitor, partial curve, poor fit]",–
O=C(CN1C(=O)CC(c2ccco2)Sc2ccccc21)NCc1ccc2c(c1)OCO2 (centres undefined),"inconclusive [inhibitor, single point]",–
COCCCN1CCN(c2nnc3n2-c2sc(Br)cc2C(c2ccccc2Cl)=NC3)CC1,"inconclusive [inhibitor, single point]",–
CC1CCCCN1S(=O)(=O)c1ccc(C(=O)N(CCCN(C)C)c2nc3ccc(Br)cc3s2)cc1 (centres undefined),"inconclusive [inhibitor, single point]",–
O=C(Nc1ccc(CN2CCOCC2)cc1)c1ccc(-c2cccc([N+](=O)[O-])c2)o1,"inconclusive [inhibitor, full curve]",–
COC(=O)[C@@H]1CCCN1C(=O)CCc1nnc(CCc2c[nH]c3ccccc23)o1,"inconclusive [inhibitor, single point]",–
C=CCOc1ccc(/C(O)=C2/C(=O)C(=O)N(CCCn3ccnc3)C2c2ccco2)cc1 (centres undefined),–,inactive: 43.3%

# Reference: PubChem BioAssay AID504832 (National Center for Advancing Translational Sciences (NCATS), 2011)
